# Experimental data reported in article PMC13086964, “USP7 deubiquitinase stabilizes FAN1 to support DNA crosslink repair and suppress CAG repeat expansion” (Nature Communications, 2026).
# Amino acid sequences for entries named in this document (tags omitted). A change or cut given only in a name is not applied to a line headed by its entry. Residues count along the entry.
# UniProt Q9Y2M0: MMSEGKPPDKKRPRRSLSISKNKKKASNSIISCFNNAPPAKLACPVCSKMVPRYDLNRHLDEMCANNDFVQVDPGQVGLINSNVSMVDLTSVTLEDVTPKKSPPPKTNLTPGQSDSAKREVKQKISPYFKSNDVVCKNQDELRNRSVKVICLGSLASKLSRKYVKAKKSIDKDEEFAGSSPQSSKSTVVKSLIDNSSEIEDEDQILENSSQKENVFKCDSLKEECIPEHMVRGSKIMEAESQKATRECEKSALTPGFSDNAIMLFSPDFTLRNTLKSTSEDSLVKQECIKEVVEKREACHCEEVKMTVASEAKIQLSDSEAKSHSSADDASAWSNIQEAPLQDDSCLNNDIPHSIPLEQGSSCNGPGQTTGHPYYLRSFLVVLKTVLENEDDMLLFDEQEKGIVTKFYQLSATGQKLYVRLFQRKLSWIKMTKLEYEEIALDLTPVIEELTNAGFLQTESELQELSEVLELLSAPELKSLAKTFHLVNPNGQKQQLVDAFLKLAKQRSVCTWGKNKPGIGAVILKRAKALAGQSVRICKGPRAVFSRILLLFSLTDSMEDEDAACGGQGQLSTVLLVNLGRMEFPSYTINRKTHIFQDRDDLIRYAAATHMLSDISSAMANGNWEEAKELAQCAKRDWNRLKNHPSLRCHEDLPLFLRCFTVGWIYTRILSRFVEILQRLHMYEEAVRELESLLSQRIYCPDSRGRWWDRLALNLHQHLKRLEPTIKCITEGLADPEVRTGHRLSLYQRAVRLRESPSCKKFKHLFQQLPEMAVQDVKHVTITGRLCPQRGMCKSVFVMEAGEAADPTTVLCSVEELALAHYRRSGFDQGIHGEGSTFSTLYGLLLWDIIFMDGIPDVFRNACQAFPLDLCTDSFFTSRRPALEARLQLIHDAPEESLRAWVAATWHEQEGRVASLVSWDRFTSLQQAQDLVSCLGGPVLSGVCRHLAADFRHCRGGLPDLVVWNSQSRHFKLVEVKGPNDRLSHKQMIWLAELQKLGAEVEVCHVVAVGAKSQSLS
# GFP-FAN1 N-terminal domain (aa 1-372, NTD): residues 1-372 of Q9Y2M0
# GFP-FAN1 ΔNTD (aa 373-1017): residues 373-1017 of Q9Y2M0
# UniProt Q93009: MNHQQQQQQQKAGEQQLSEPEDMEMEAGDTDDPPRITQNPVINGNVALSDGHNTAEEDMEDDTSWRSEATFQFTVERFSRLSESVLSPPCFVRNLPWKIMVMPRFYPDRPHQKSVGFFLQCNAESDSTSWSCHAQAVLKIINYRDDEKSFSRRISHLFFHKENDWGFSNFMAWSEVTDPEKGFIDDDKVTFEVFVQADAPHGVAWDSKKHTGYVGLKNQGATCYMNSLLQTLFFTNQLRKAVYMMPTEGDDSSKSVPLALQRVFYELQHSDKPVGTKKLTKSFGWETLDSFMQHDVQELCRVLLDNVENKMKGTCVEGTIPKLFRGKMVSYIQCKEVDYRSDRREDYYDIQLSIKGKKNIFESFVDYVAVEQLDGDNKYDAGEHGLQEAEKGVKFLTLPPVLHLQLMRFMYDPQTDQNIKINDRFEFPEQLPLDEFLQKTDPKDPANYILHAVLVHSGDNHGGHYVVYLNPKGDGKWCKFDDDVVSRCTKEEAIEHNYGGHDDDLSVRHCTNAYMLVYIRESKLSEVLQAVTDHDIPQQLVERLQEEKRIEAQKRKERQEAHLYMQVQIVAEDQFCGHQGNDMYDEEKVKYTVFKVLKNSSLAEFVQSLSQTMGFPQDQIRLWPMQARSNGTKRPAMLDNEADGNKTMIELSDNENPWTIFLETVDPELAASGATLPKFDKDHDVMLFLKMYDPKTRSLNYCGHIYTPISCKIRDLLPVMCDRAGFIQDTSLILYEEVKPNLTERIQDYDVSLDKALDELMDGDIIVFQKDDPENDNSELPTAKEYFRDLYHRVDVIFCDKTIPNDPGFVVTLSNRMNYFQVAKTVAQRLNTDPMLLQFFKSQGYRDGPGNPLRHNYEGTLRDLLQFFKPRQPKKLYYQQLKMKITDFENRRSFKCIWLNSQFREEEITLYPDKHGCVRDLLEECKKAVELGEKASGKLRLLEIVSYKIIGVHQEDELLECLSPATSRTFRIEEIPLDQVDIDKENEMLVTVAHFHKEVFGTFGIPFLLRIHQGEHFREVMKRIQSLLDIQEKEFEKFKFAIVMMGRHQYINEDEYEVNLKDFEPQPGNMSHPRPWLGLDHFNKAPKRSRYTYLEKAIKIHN
# UniProt Q93008: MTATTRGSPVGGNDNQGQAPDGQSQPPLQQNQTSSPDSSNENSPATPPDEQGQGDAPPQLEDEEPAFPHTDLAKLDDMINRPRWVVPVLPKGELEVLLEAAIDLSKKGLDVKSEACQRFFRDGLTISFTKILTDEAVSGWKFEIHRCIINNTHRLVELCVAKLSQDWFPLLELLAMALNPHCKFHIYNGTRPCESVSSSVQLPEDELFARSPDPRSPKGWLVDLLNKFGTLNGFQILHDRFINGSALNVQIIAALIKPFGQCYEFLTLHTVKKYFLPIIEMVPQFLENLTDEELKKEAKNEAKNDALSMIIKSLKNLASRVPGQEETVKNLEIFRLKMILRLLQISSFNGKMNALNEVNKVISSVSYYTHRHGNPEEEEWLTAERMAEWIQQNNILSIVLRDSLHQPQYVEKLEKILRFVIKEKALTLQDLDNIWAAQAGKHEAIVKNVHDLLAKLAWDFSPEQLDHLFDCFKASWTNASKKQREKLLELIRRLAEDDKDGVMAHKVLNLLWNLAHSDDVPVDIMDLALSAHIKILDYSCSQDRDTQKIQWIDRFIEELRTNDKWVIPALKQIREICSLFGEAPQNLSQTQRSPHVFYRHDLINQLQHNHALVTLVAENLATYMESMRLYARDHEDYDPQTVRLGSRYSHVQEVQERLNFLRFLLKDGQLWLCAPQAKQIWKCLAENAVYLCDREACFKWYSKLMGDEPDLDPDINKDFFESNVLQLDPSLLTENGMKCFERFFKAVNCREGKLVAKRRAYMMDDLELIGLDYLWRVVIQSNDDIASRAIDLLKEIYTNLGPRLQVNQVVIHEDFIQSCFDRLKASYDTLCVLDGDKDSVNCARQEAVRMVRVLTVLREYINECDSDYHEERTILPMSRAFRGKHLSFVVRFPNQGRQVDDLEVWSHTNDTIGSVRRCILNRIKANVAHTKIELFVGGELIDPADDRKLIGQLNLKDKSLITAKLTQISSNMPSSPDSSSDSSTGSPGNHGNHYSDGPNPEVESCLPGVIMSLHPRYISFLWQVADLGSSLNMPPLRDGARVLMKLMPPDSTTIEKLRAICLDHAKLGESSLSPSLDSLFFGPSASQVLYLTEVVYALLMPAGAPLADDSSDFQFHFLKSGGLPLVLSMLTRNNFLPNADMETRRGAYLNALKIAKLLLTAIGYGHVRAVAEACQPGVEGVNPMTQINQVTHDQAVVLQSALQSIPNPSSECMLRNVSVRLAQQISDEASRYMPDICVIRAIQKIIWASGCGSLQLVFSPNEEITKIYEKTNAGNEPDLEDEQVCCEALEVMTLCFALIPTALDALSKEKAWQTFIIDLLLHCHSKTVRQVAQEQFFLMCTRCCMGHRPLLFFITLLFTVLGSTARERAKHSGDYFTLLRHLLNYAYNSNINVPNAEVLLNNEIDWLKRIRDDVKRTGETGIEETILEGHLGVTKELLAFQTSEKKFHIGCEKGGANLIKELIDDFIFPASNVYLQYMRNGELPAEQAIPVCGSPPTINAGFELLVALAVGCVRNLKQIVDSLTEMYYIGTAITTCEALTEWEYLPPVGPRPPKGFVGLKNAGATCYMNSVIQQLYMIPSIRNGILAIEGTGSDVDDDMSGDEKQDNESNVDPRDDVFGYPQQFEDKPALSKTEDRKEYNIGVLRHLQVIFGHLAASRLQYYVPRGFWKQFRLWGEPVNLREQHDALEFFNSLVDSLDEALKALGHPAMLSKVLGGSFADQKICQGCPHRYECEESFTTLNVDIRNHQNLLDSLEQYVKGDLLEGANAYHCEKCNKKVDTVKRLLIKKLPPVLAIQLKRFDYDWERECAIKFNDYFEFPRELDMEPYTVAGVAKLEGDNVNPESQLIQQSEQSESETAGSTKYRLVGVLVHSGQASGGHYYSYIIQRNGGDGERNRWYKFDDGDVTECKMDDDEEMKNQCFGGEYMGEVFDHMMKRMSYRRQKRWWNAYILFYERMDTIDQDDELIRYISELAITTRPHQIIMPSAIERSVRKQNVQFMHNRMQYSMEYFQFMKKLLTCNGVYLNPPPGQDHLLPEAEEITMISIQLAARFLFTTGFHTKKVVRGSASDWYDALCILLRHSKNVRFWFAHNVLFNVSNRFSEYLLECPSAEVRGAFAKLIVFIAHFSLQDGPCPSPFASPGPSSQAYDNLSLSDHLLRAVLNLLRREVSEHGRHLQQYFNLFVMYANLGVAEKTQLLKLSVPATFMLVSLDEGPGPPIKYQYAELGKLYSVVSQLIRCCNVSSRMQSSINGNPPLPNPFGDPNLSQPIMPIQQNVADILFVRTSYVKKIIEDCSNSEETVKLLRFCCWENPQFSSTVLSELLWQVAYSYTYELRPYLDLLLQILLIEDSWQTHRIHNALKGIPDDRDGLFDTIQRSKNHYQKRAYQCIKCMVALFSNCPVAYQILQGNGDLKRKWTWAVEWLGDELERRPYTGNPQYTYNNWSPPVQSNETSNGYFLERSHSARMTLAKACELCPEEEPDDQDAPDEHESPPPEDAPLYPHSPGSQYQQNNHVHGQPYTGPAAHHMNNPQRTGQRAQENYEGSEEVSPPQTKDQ
# Results are given in words; binding and its absence hold for the method and conditions named. In cells and extracts the contact can be indirect. Some binding calls cover weakened binding; strength is not graded here.
# How the values were obtained:
# [1] = molecular target: GFP-FAN1 wild-type (wt), full-length (human) (UniProt Q9Y2M0); experiment: co-IP; GFP-Trap agarose on whole-cell extracts (HEK293 eGFP-FAN1 cells induced with Dox, or HEK293 cells transfected with GFP-FAN1 constructs, with FLAG-USP7 in Fig. 1G); NP-40 buffer with 120 mM NaCl, Benzonase; 2 h or overnight, 4 °C; immunoblotting
# [2] = molecular target: FLAG-USP7 D164A/W165A (TRAF domain mutant), full-length (human) (UniProt Q93009); experiment: co-IP; anti-FLAG M2 affinity resin on whole-cell extracts of HEK293, HEK293 eGFP-FAN1 (Dox-induced) or HEK293T cells transfected with FLAG-USP7 constructs; NP-40 buffer with 120 mM NaCl, Benzonase; 4 °C; immunoblotting
# [3] = molecular target: FLAG-USP7 wt, full-length (human) (UniProt Q93009); experiment: as above
# [4] = molecular target: endogenous FAN1 (HeLa cells) (human (endogenous in HeLa)) (UniProt Q9Y2M0); experiment: co-IP; anti-FAN1 rabbit polyclonal antibody and Protein A Sepharose on 5 mg HeLa nuclear extract; 20 mM HEPES pH 7.9, 100 mM KCl; overnight, 4 °C; immunoblotting
# [5] = molecular target: endogenous FAN1 (HeLa cells) (human (endogenous in HeLa)) (UniProt Q9Y2M0); experiment: proximity ligation; in situ PLA (Duolink) in pre-extracted, fixed HeLa parental and FAN1 KO cells, mock-treated or treated with MMC (150 ng/ml, 24 h)
# [6] = molecular target: GFP-FAN1 N-terminal domain (aa 1-372, NTD) (human) (UniProt Q9Y2M0); experiment: co-IP; GFP-Trap agarose on whole-cell extracts (HEK293 eGFP-FAN1 cells induced with Dox, or HEK293 cells transfected with GFP-FAN1 constructs, with FLAG-USP7 in Fig. 1G); NP-40 buffer with 120 mM NaCl, Benzonase; 2 h or overnight, 4 °C; immunoblotting
# [7] = molecular target: GFP-FAN1 ΔNTD (aa 373-1017) (human) (UniProt Q9Y2M0); experiment: as above
# [8] = molecular target: full-length GFP-FAN1 S184A (human) (UniProt Q9Y2M0); experiment: as above
binding [1],binding [2],binding [3],Substance,other results
binds,–,–,endogenous USP9X (HEK293 cells) (from UniProt Q93008 1-2554) (enzyme),–
–,binds weakly,binds,"GFP-FAN1 wild-type (wt), full-length (from UniProt Q9Y2M0 1-1017)",–
–,–,–,endogenous USP7 (HeLa cells) (from UniProt Q93009 1-1102) (enzyme),binding [4]: binds; binding [5]: binds
–,–,–,"FLAG-USP7 wt, full-length (from UniProt Q93009 1-1102) (enzyme)",binding [6]: binds; binding [7]: no binding
binds,–,–,endogenous USP7 (HEK293 cells) (from UniProt Q93009 1-1102) (enzyme),binding [8]: binds
–,binds weakly,binds,endogenous FAN1 (HEK293 and HEK293T cells) (from UniProt Q9Y2M0 1-1017),–
